According to the supplement of paper PMC6206098:
± gives the uncertainty stated by the source. The sequences are guide strands of siRNAs; only the seed at positions 2 to 7 varies.

What was measured:
3LL = experiment: cell viability relative to siNT1 control; higher = less toxic; conditions: concentration: 10 nM; 96 h; Mus musculus;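 note: Luminescence-based viability of cells reverse transfected in 384-well plates with lipid-complexed siRNAs built on a non-toxic 19mer backbone whose passenger strand carries 2′-O-methyl groups at positions 1 and 2, triplicates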
HeyA8 = experiment: cell viability relative to lipid-only control; HeyA8 human ovarian and H460 human lung cancer; M565 mouse liver and 3LL mouse lung cancer; siNT1 is a non-toxic control siRNA; higher = less toxic; conditions: concentration: 10 nM; 96 h; Homo sapiens
H460 = experiment: as above; conditions: concentration: 10 nM; 96 h; Homo sapiens
M565 = experiment: as above; conditions: concentration: 10 nM; 96 h; Mus musculus
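Throughout, for cell viability relative to lipid-only control: reverse lipid transfection in 384-well plates, in triplicate, of duplexes on a non-toxic 19mer backbone with passenger strand 2′-O-methylated at positions 1 and 2, luminescence viability read-out.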

| Sequence | cell viability (3LL) [%] | cell viability (HeyA8) [%] | cell viability (H460) [%] | cell viability (M565) [%] |
| --- | --- | --- | --- | --- |
| UGAGGAAACAUGUAAACCAAA | 83.4 ± 20 | 72.3 ± 4.5 | 68.4 ± 10 | 28 ± 7.7 |
| UGAGGACACAUGUAAACCAAA | 33.8 ± 6.3 | 18 ± 1.5 | 15 ± 0.53 | 16.7 ± 2.7 |
| UGAGGAGACAUGUAAACCAAA | 76.1 ± 9.9 | 38.9 ± 4.3 | 55 ± 4.8 | 15.4 ± 2.6 |
| UGAGGAUACAUGUAAACCAAA | 48.6 ± 9.1 | 23.2 ± 2.8 | 31 ± 2.4 | 21.7 ± 5 |
| UGAGGCAACAUGUAAACCAAA | 7.47 ± 0.38 | 36.3 ± 1.3 | 58.2 ± 5.4 | 4.98 ± 1.1 |
| UGAGGCCACAUGUAAACCAAA | 8.42 ± 4.3 | 19.9 ± 1.1 | 15.6 ± 1.7 | 4.12 ± 1.1 |
| UGAGGCGACAUGUAAACCAAA | 26.1 ± 5 | 45.8 ± 3.5 | 64.9 ± 14 | 5.03 ± 1.1 |
| UGAGGCUACAUGUAAACCAAA | 5.02 ± 1.1 | 10.9 ± 0.47 | 26.8 ± 3.5 | 3.52 ± 1.1 |
| UGAGGGAACAUGUAAACCAAA | 73 ± 15 | 21.8 ± 1.8 | 43.2 ± 3.4 | 15.8 ± 3.9 |
| UGAGGGCACAUGUAAACCAAA | 60.8 ± 8.9 | 3.07 ± 0.62 | 13.4 ± 0.65 | 3.66 ± 0.6 |
| UGAGGGGACAUGUAAACCAAA | 53.4 ± 23 | 3.68 ± 0.15 | 27.7 ± 1.8 | 8.59 ± 2.9 |
| UGAGGGUACAUGUAAACCAAA | 38.5 ± 3.9 | 2.74 ± 0.078 | 23.7 ± 0.44 | 7.43 ± 2.1 |
| UGAGGUAACAUGUAAACCAAA | 92.3 ± 11 | 74.4 ± 5.3 | 73.4 ± 10 | 19.1 ± 6 |
| UGAGGUCACAUGUAAACCAAA | 60.3 ± 1.3 | 27.2 ± 2.4 | 28 ± 5.5 | 4.84 ± 1.7 |
| UGAGGUGACAUGUAAACCAAA | 90.4 ± 18 | 63 ± 5.5 | 56.4 ± 5 | 5.94 ± 0.58 |
| UGAGGUUACAUGUAAACCAAA | 95.3 ± 8.6 | 55 ± 4 | 50.2 ± 6.2 | 14.3 ± 3.4 |
| UGAGUAAACAUGUAAACCAAA | 90 ± 19 | 96.7 ± 1.8 | 90.9 ± 11 | 38.4 ± 8.1 |
| UGAGUACACAUGUAAACCAAA | 57.6 ± 4.4 | 29 ± 5.4 | 56.1 ± 9 | 48.7 ± 5.5 |
| UGAGUAGACAUGUAAACCAAA | 21.4 ± 4 | 22.4 ± 1.2 | 70.8 ± 8.3 | 14 ± 3.6 |
| UGAGUAUACAUGUAAACCAAA | 51.7 ± 6.6 | 24 ± 5.3 | 64.9 ± 9.2 | 31.7 ± 11 |

| Sequence | cell viability (3LL) [%] | cell viability (HeyA8) [%] | cell viability (H460) [%] | cell viability (M565) [%] |
| --- | --- | --- | --- | --- |
| UGAGUCAACAUGUAAACCAAA | 98.5 ± 18 | 71.9 ± 7.9 | 75 ± 2.3 | 31.3 ± 6.3 |
| UGAGUCCACAUGUAAACCAAA | 2.4 ± 0.22 | 32.1 ± 6.6 | 15.5 ± 4.6 | 4.2 ± 0.58 |
| UGAGUCGACAUGUAAACCAAA | 101 ± 13 | 88.4 ± 3 | 78.2 ± 5 | 35.3 ± 6.3 |
| UGAGUCUACAUGUAAACCAAA | 55.5 ± 13 | 50.8 ± 6.2 | 53.6 ± 9.5 | 16.2 ± 2.2 |
| UGAGUGAACAUGUAAACCAAA | 70.8 ± 18 | 81.6 ± 9.7 | 67.6 ± 6.2 | 14.3 ± 4.3 |
| UGAGUGCACAUGUAAACCAAA | 41.4 ± 10 | 62.7 ± 4.2 | 46.9 ± 9 | 61.3 ± 17 |
| UGAGUGGACAUGUAAACCAAA | 26.4 ± 5 | 18.8 ± 3.5 | 65.2 ± 9.4 | 11.1 ± 4.7 |
| UGAGUGUACAUGUAAACCAAA | 80.2 ± 16 | 38.9 ± 6.6 | 62.7 ± 12 | 19.7 ± 5.6 |
| UGAGUUAACAUGUAAACCAAA | 95.2 ± 17 | 79.6 ± 6 | 85.3 ± 21 | 42.3 ± 5.2 |
| UGAGUUCACAUGUAAACCAAA | 55.2 ± 14 | 33.5 ± 10 | 69.2 ± 6.7 | 22.9 ± 4.1 |
| UGAGUUGACAUGUAAACCAAA | 94.1 ± 16 | 45.8 ± 4.3 | 63.3 ± 1.7 | 22.5 ± 8.7 |
| UGAGUUUACAUGUAAACCAAA | 86.5 ± 15 | 49.5 ± 4.8 | 66.7 ± 3.7 | 31.4 ± 3 |
| UGAUAAAACAUGUAAACCAAA | 94.2 ± 13 | 83.5 ± 8.1 | 71.6 ± 12 | 86.7 ± 10 |
| UGAUAACACAUGUAAACCAAA | 13.6 ± 7 | 33.7 ± 1.8 | 45.6 ± 4.4 | 63.9 ± 14 |
| UGAUAAGACAUGUAAACCAAA | 57.3 ± 14 | 35 ± 3.1 | 40.3 ± 3.1 | 22.1 ± 5.5 |
| UGAUAAUACAUGUAAACCAAA | 56 ± 21 | 30 ± 5.3 | 65.2 ± 8.1 | 87.4 ± 9.3 |
| UGAUACAACAUGUAAACCAAA | 70.5 ± 6.5 | 66.5 ± 4.5 | 46.1 ± 5 | 40.5 ± 5.1 |
| UGAUACCACAUGUAAACCAAA | 34.3 ± 3.7 | 4.04 ± 0.64 | 18.5 ± 0.56 | 19.2 ± 6.8 |
| UGAUACGACAUGUAAACCAAA | 87.4 ± 19 | 84.4 ± 6.4 | 51.3 ± 2.8 | 58.7 ± 7 |
| UGAUACUACAUGUAAACCAAA | 30.5 ± 4.3 | 50.2 ± 1.7 | 31.5 ± 1.6 | 16.5 ± 2.4 |

| Sequence | cell viability (3LL) [%] | cell viability (HeyA8) [%] | cell viability (H460) [%] | cell viability (M565) [%] |
| --- | --- | --- | --- | --- |
| UGAUAGAACAUGUAAACCAAA | 46.6 ± 13 | 59.2 ± 2.4 | 50.7 ± 6.5 | 50.4 ± 3.5 |
| UGAUAGCACAUGUAAACCAAA | 6.23 ± 1.3 | 17.5 ± 2 | 29.24 ± 0.27 | 15 ± 2.6 |
| UGAUAGGACAUGUAAACCAAA | 9.89 ± 5.4 | 50.3 ± 4.6 | 51.6 ± 11 | 48.7 ± 10 |
| UGAUAGUACAUGUAAACCAAA | 16.9 ± 3.1 | 42.6 ± 7 | 52 ± 3.4 | 16.7 ± 1.9 |
| UGAUAUAACAUGUAAACCAAA | 82.5 ± 16 | 67.3 ± 1.1 | 60.2 ± 5.5 | 90 ± 6 |
| UGAUAUCACAUGUAAACCAAA | 32.4 ± 6.5 | 11.6 ± 0.87 | 38.9 ± 7.9 | 51.7 ± 5.2 |
| UGAUAUGACAUGUAAACCAAA | 58.9 ± 16 | 67.2 ± 2.3 | 60.4 ± 11 | 62.4 ± 5.8 |
| UGAUAUUACAUGUAAACCAAA | 65.1 ± 21 | 47 ± 5.3 | 56.4 ± 7.8 | 54.6 ± 4.5 |
| UGAUCAAACAUGUAAACCAAA | 85.3 ± 22 | 51.6 ± 7.7 | 50.9 ± 6.6 | 37.8 ± 7.2 |
| UGAUCACACAUGUAAACCAAA | 44.1 ± 18 | 34.1 ± 4.4 | 45.1 ± 12 | 20.1 ± 7.6 |
| UGAUCAGACAUGUAAACCAAA | 70.7 ± 14 | 50.4 ± 3.3 | 45.7 ± 5.8 | 24.6 ± 10 |
| UGAUCAUACAUGUAAACCAAA | 68.8 ± 11 | 30.3 ± 3.3 | 33.4 ± 5.4 | 25.8 ± 4 |
| UGAUCCAACAUGUAAACCAAA | 61.9 ± 11 | 80.1 ± 2.1 | 54.5 ± 4.5 | 28.4 ± 4.1 |
| UGAUCCCACAUGUAAACCAAA | 38.6 ± 5.5 | 60.6 ± 4.4 | 67.4 ± 5.4 | 7.32 ± 0.77 |
| UGAUCCGACAUGUAAACCAAA | 46.9 ± 12 | 76.6 ± 4.5 | 82.2 ± 9.4 | 17.4 ± 3.1 |
| UGAUCCUACAUGUAAACCAAA | 19.7 ± 2.7 | 52.2 ± 2.3 | 33.8 ± 5.1 | 19 ± 3.5 |
| UGAUCGAACAUGUAAACCAAA | 87.1 ± 20 | 68.1 ± 7.6 | 55.4 ± 6 | 47.5 ± 5.2 |
| UGAUCGCACAUGUAAACCAAA | 26.3 ± 4.4 | 35.3 ± 2.4 | 28.7 ± 1.1 | 20.5 ± 6.8 |
| UGAUCGGACAUGUAAACCAAA | 13.2 ± 0.93 | 77.5 ± 9 | 62.1 ± 11 | 15 ± 0.4 |
| UGAUCGUACAUGUAAACCAAA | 31.7 ± 5.5 | 54.4 ± 2.9 | 56 ± 6.8 | 30 ± 5.5 |
